{"source": "the supplement of paper PMC3334620", "note": "In all, about 33,000 sequences were measured (“E-score (-0.5 to 0.5)”: median about -0.04, highest 2% from about 0.36 on). This is one part of the list."}
{"biological_target": "T1, Hmlalpha2 (UniProt P0CY09)", "T1 sequence": "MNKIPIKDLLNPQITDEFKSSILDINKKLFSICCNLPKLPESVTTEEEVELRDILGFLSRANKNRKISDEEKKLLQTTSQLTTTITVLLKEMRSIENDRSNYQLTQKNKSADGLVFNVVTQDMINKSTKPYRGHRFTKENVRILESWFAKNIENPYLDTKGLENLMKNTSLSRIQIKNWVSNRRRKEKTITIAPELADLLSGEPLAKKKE", "experiment": "PBM E-score (8-mer binding enrichment) (E-score (-0.5 to 0.5)); higher = stronger / more preferred TF binding; most listed sequences are background and not binding sites", "conditions": "protein concentration: 200 nM; construct: GST-full length", "procedure,_shortened": "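PURExpress in vitro transcription/translation supplied GST-tagged yeast transcription factors, either full-length or DNA-binding domain. Applied at about 100-200 nM to universal all-10-mer Agilent arrays double-stranded by primer extension, the bound protein was detected with fluorescent anti-GST. E-scores, modified Wilcoxon-Mann-Whitney statistics, were given by the Universal PBM Analysis Suite to ungapped eight-base words pooled with their reverse complements after masliner normalisation.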"}
{"sequence": "GAACTATC", "PBM E-score": -0.209}
{"sequence": "CGGGCTTA", "PBM E-score": -0.124}
{"sequence": "ACCTCATC", "PBM E-score": -0.0561}
{"sequence": "CGGACCCG", "PBM E-score": -0.24}
{"sequence": "GCTGCACC", "PBM E-score": -0.393}
{"sequence": "CGCATTAC", "PBM E-score": 0.214}
{"sequence": "ATCTCATA", "PBM E-score": -0.0685}
{"sequence": "AGAGCTTA", "PBM E-score": -0.0481}
{"sequence": "CTACCATC", "PBM E-score": -0.205}
{"sequence": "GAGGCCGC", "PBM E-score": -0.174}
{"sequence": "AACTGTAA", "PBM E-score": 0.227}
{"sequence": "CCCGGAAC", "PBM E-score": -0.156}
{"sequence": "CGTTCGGC", "PBM E-score": -0.217}
{"sequence": "CGTAACTA", "PBM E-score": 0.149}
{"sequence": "AAAAGAGC", "PBM E-score": -0.0178}
{"sequence": "AGTATATC", "PBM E-score": 0.0765}
{"sequence": "CGGTTTTC", "PBM E-score": -0.038}
{"sequence": "ATCGACAT", "PBM E-score": 0.31}
{"sequence": "ATGTAGGA", "PBM E-score": 0.236}
{"sequence": "GAAGGCGA", "PBM E-score": -0.325}
{"sequence": "ATCATACC", "PBM E-score": 0.138}
{"sequence": "GGATCCGA", "PBM E-score": -0.303}
{"sequence": "GGCTACCC", "PBM E-score": -0.274}
{"sequence": "GACATGTC", "PBM E-score": 0.327}
{"sequence": "GTTATGCA", "PBM E-score": 0.00491}
{"sequence": "AAAAAACA", "PBM E-score": 0.244}
{"sequence": "ACCCGGAC", "PBM E-score": -0.171}
{"sequence": "ATTATCTA", "PBM E-score": 0.277}
{"sequence": "AAGAAACG", "PBM E-score": 0.109}
{"sequence": "CCTGAGAA", "PBM E-score": 0.043}
{"sequence": "TCAGTCGA", "PBM E-score": -0.0399}
{"sequence": "ATATACTA", "PBM E-score": 0.1}
{"sequence": "AGTTGTTG", "PBM E-score": -0.00626}
{"sequence": "CCTGCCTA", "PBM E-score": -0.15}
{"sequence": "CAGAGCGG", "PBM E-score": -0.218}
{"sequence": "CCCGTGTA", "PBM E-score": 0.451}
{"sequence": "CCACGGAC", "PBM E-score": -0.301}
{"sequence": "CGAGCCAA", "PBM E-score": 0.0319}
{"sequence": "AGCGAGCA", "PBM E-score": -0.0888}
{"sequence": "GTCGCCTA", "PBM E-score": -0.103}
{"sequence": "AGGTATTC", "PBM E-score": 0.139}
{"sequence": "ACGCGGGC", "PBM E-score": 0.198}
{"sequence": "AATACGCA", "PBM E-score": 0.385}
{"sequence": "CTCGCTCC", "PBM E-score": -0.103}
{"sequence": "AAATCAAC", "PBM E-score": 0.104}
{"sequence": "ACACCAGG", "PBM E-score": -0.102}
{"sequence": "CGATAATC", "PBM E-score": -0.134}
{"sequence": "ACGTCACC", "PBM E-score": -0.0136}
{"sequence": "GTGGGACA", "PBM E-score": -0.0285}
{"sequence": "CAAGTCCC", "PBM E-score": -0.195}
{"sequence": "CACTGAAA", "PBM E-score": 0.0809}
{"sequence": "GACCGTAC", "PBM E-score": -0.136}
{"sequence": "ATCCTATA", "PBM E-score": 0.0747}
{"sequence": "ATGTCCAC", "PBM E-score": 0.0727}
{"sequence": "AGTCGCTA", "PBM E-score": 0.0556}
{"sequence": "CATAGCCA", "PBM E-score": -0.0704}
{"sequence": "CTAGGCCC", "PBM E-score": -0.281}
{"sequence": "AGCGGGTG", "PBM E-score": 0.00691}
{"sequence": "ATATTATC", "PBM E-score": 0.0773}
{"sequence": "ACCTTCAC", "PBM E-score": 0.0215}
{"sequence": "GCAAGGGA", "PBM E-score": -0.164}
{"sequence": "GATTACAC", "PBM E-score": 0.483}
{"sequence": "ATAGCACC", "PBM E-score": -0.115}
{"sequence": "CGCCATAG", "PBM E-score": -0.163}
{"sequence": "ATGTAAAG", "PBM E-score": 0.473}
{"sequence": "AGGTCTTA", "PBM E-score": 0.00867}
{"sequence": "CAGAGTCG", "PBM E-score": -0.251}
{"sequence": "CAGCATAG", "PBM E-score": 0.0319}
{"sequence": "ACGCAATG", "PBM E-score": 0.249}
{"sequence": "CGGCCATA", "PBM E-score": -0.208}
{"sequence": "CACGGTGA", "PBM E-score": 0.155}
{"sequence": "CTCGGCGC", "PBM E-score": -0.0543}
{"sequence": "GAGACCTC", "PBM E-score": -0.154}
{"sequence": "ACACACGC", "PBM E-score": 0.288}
{"sequence": "AACCGTGA", "PBM E-score": -0.0751}
{"sequence": "AACAGCAA", "PBM E-score": 0.116}
{"sequence": "ACCTCGCA", "PBM E-score": 0.0111}
{"sequence": "CGCCAAGC", "PBM E-score": -0.127}
{"sequence": "AGTACGCA", "PBM E-score": 0.0995}
{"sequence": "AAGAGACG", "PBM E-score": -0.125}
{"sequence": "CAGACTAA", "PBM E-score": -0.0197}
{"sequence": "ACCAATAT", "PBM E-score": 0.0365}
{"sequence": "ATGTACCG", "PBM E-score": 0.112}
{"sequence": "AAGGAGTG", "PBM E-score": -0.0512}
{"sequence": "CGGCTCTA", "PBM E-score": -0.0712}
{"sequence": "CTCAGAAA", "PBM E-score": 0.0713}
{"sequence": "ACTTGTTG", "PBM E-score": 0.143}
{"sequence": "CTTACCCC", "PBM E-score": -0.307}
{"sequence": "ACTTCTGC", "PBM E-score": -0.00836}
{"sequence": "CATGACGC", "PBM E-score": 0.228}
{"sequence": "ATTATGGG", "PBM E-score": -0.127}
{"sequence": "CAAGACCA", "PBM E-score": -0.0761}
{"sequence": "AAGGAGGC", "PBM E-score": -0.247}
{"sequence": "ATAGAATA", "PBM E-score": 0.146}
{"sequence": "GTCTGCTA", "PBM E-score": 0.00028}
{"sequence": "CCCCCTCG", "PBM E-score": -0.316}
{"sequence": "AGAGATAC", "PBM E-score": 0.0207}
{"sequence": "AGAGCAAA", "PBM E-score": -0.138}
{"sequence": "CCAAGAGG", "PBM E-score": -0.239}
{"sequence": "AGGGTGTC", "PBM E-score": -0.163}
{"sequence": "CAGGAGAG", "PBM E-score": -0.144}
{"sequence": "AAGATATA", "PBM E-score": 0.186}
{"sequence": "CCTGTGTA", "PBM E-score": 0.43}
{"sequence": "CTGCAACA", "PBM E-score": 0.0745}
{"sequence": "ATCTATCA", "PBM E-score": -0.0143}
{"sequence": "AATACTAT", "PBM E-score": 0.0435}
{"sequence": "ACCCGTAA", "PBM E-score": 0.0605}
{"sequence": "CGCGGGGA", "PBM E-score": 0.00824}
{"sequence": "CCCTCGAC", "PBM E-score": -0.183}
{"sequence": "GTACGTAC", "PBM E-score": 0.17}
{"sequence": "GTCATTCA", "PBM E-score": -0.0332}
{"sequence": "GCAAAACA", "PBM E-score": 0.135}
{"sequence": "ATGACAAG", "PBM E-score": 0.15}
{"sequence": "GAGCCTTA", "PBM E-score": -0.14}
{"sequence": "GACTTGGC", "PBM E-score": -0.347}
{"sequence": "CGTCGGCC", "PBM E-score": -0.146}
{"sequence": "ACTTATAG", "PBM E-score": -0.0672}
{"sequence": "AAGCGAGT", "PBM E-score": 0.169}
{"sequence": "ATTAAAAG", "PBM E-score": 0.00813}
{"sequence": "ATAAAGAC", "PBM E-score": 0.0149}
{"sequence": "ATCCGCTC", "PBM E-score": -0.247}
{"sequence": "ATCGCCAT", "PBM E-score": -0.127}
{"sequence": "GTCGCGTA", "PBM E-score": 0.414}
{"sequence": "AAACGCGA", "PBM E-score": 0.214}
{"sequence": "TGAGAACA", "PBM E-score": 0.168}
{"sequence": "GAAGGGGC", "PBM E-score": -0.259}
{"sequence": "CGAAGTAC", "PBM E-score": 0.117}
{"sequence": "AGTGATAT", "PBM E-score": -0.12}
{"sequence": "CATCGGCA", "PBM E-score": -0.103}
{"sequence": "CATCTTGG", "PBM E-score": -0.183}
{"sequence": "GGATTACA", "PBM E-score": 0.444}
{"sequence": "CGAGAATA", "PBM E-score": -0.0428}
{"sequence": "ACACACAC", "PBM E-score": 0.326}
{"sequence": "AGACCAAT", "PBM E-score": 0.0163}
{"sequence": "AGGGCGGG", "PBM E-score": -0.0726}
{"sequence": "GCAGTACA", "PBM E-score": 0.192}
{"sequence": "TACTTGAA", "PBM E-score": 0.257}
{"sequence": "CAACGAAG", "PBM E-score": 0.0201}
{"sequence": "CTACCAAG", "PBM E-score": -0.0171}
{"sequence": "AGCGTACT", "PBM E-score": -0.0394}
{"sequence": "AAGGCCAG", "PBM E-score": -0.159}
{"sequence": "ATATGTTG", "PBM E-score": 0.346}
{"sequence": "GTCGAGAA", "PBM E-score": 0.154}
{"sequence": "AGGTGCAA", "PBM E-score": -0.136}
{"sequence": "GGAAATCA", "PBM E-score": 0.0188}
{"sequence": "CCCCAAAG", "PBM E-score": -0.185}
{"sequence": "ATGGACAG", "PBM E-score": -0.0548}
{"sequence": "GTGAAGAA", "PBM E-score": 0.181}
{"sequence": "ATATCTCC", "PBM E-score": -0.269}
{"sequence": "CAGTAGCC", "PBM E-score": -0.249}
{"sequence": "AAATCGCT", "PBM E-score": -0.0533}
{"sequence": "AAGATCGC", "PBM E-score": 0.0662}
{"sequence": "CCGGGAAG", "PBM E-score": -0.179}
{"sequence": "CCAATTTC", "PBM E-score": -0.134}
{"sequence": "CGATACAG", "PBM E-score": -0.176}
{"sequence": "AGAGTATG", "PBM E-score": -0.0146}
{"sequence": "ACACGTCC", "PBM E-score": 0.236}
{"sequence": "CCGTCCGA", "PBM E-score": -0.283}
{"sequence": "AGGTTAAC", "PBM E-score": 0.222}
{"sequence": "GAACGAAA", "PBM E-score": -0.193}
{"sequence": "CCGTAGCA", "PBM E-score": -0.122}
{"sequence": "CATTGACG", "PBM E-score": 0.0323}
{"sequence": "CCAGTGGG", "PBM E-score": -0.211}
{"sequence": "ACCTTTGC", "PBM E-score": -0.0389}
{"sequence": "ATAGAGTC", "PBM E-score": -0.0378}
{"sequence": "GGTACTTA", "PBM E-score": -0.0559}
{"sequence": "ATTGCGGC", "PBM E-score": -0.186}
{"sequence": "CTTTGCCA", "PBM E-score": -0.16}
{"sequence": "AGTTTATC", "PBM E-score": 0.17}
{"sequence": "CTGGAGGC", "PBM E-score": -0.353}
{"sequence": "ATTATCTG", "PBM E-score": 0.0498}
{"sequence": "ACCGCAAA", "PBM E-score": -0.00922}
